In the RNAGym collection of RNA variant scans (doi:10.7554/elife.90254):
The source gives no read counts; variants with many changes may rest on few reads.

B1: LINE1-mini (parent)
chain: GGCAGAGCUCAACACAGCGUGGCAAAGUGGCUGUGGCUAGACUGCC

Variants of: B1
Assay: self-cleavage, relative activity (ratio to wild type); higher = more cleavage; in vitro, sequencing; the parent is a self-cleaving ribozyme

| Variant | self-cleavage |
| --- | --- |
| U38G A39G C45G | 0.03 |
| C37U A39C G40U | 0.08 |
| A39G A41C G44U | 0.05 |
| A39U A41C C45A | 0.08 |
| A41G U43A C45G | 0.01 |
| C37U U38A G44C | 0.02 |
| A39G G40A C46G | 0.02 |
| U38C G40U C45A | 0.07 |
| G40A U43C C46G | 0.1 |
| C37U G40A C46G | 0.09 |
| U38A A41C C42U | 0.04 |
| C37U G40A G44C | 0.24 |
| A39C G40U C45A | 0.03 |
| A41U C42G C45U C46U | 0 |
| U43G G44A C46A | 0.02 |
| C37U G40C G44A | 0.06 |
| C37U U38A G40U | 0.49 |
| C42A C45A C46U | 0.28 |
| C37U A39U G40A | 0.62 |
| A39G G40U C45A | 0.07 |
| U38G U43A C46U | 0 |
| A39G G40U C46A | 0.05 |
| U38G A39U G44U | 0.08 |
| G40U A41C C45G | 0.17 |
| C37U C45A C46G | 0.02 |

| Variant | self-cleavage |
| --- | --- |
| U38A A41U U43A | 0.07 |
| U38C C42G C45U | 0.04 |
| A39U G40A C46A | 0.07 |
| G40A C42A G44C | 0 |
| U43G C45A C46U | 0.02 |
| C42G C45A C46A | 0.01 |
| C42U U43G C45A | 0.04 |
| G40U C42U U43A | 0.06 |
| A41U C42A C46G | 0.01 |
| A39C G44U C45A | 0.03 |
| A39U C45A C46U | 0.25 |
| C42A U43G C45U | 0.06 |
| A39U G40A G44C | 0.04 |
| C37G U38G G40C | 0.04 |
| U38C A39C C45A | 0.06 |
| A41G C42U C46U | 0.13 |
| A39C U43G C46U | 0.03 |
| C37U U38A A39U G44U | 0.05 |
| U43A G44U C45A | 0.25 |
| C42U C45G C46A | 0.04 |
| G40U A41U G44C C46G | 0.03 |
| U38G C42G U43A G44C | 0.04 |
| C37U G44U C45A | 0.28 |
| G40C C42U C46A | 0.07 |
| U38C U43C G44U | 0.03 |

| Variant | self-cleavage |
| --- | --- |
| C37U G40A A41U | 0.1 |
| G40C G44C C45U | 0.03 |
| A39G C42A U43C | 0.07 |
| C37U G40A U43A | 0.02 |
| C42U G44A C46U | 0.12 |
| U38G A39C G40A | 0 |
| A41U G44U C45G | 0.1 |
| G40U C42G G44U | 0.09 |
| A41G C45U C46U | 0.05 |
| A39U C42A U43C G44U | 0.05 |
| U43C C45A C46U | 0.1 |
| A39C G40U C42A | 0.1 |
| U38C C42G C46U | 0.08 |
| U38G C45A C46G | 0.04 |
| G40U C42A G44U | 0 |
| U38A G40C C42A | 0.04 |
| U38G G40U G44A C46U | 0.13 |
| G40U G44C C45G | 0.04 |
| U38A A39C G40U | 0.03 |
| G40C C42G G44C C46G | 0.07 |
| A39U G44C C46G | 0.05 |
| G40U U43C C45G | 0.4 |
| U38C A39G G44U | 0.04 |
